# Measurements: the supplement of paper PMC4604168 (melanoma cell lines)
# This is one part of the list. Most values come without repeats; read them as rough.
# Assays:
# Assay in all cases: cell count relative to DMSO control; melanoma cells; higher = more viable cells
# Settings in all cases: library dose: low library concentration; 72 h
# MZ2-MEL = test system: MZ2-MEL
# MeWo = test system: MeWo
# RPMI7951 = test system: RPMI7951
# RVH-421 = test system: RVH-421
# SkMel28 = test system: SkMel28
# SkMel2 = test system: SkMel2
# SkMel30 = test system: SkMel30
# SkMel5 = test system: SkMel5
# UACC257 = test system: UACC257
# UACC62 = test system: UACC62
# 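Note: cell number obtained by counting DAPI-stained nuclei in high-throughput microscope images with image analysis software, screen run in 1,536-well plates.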
SMILES,cell count (MZ2-MEL) [%],cell count (MeWo) [%],cell count (RPMI7951) [%],cell count (RVH-421) [%],cell count (SkMel28) [%],cell count (SkMel2) [%],cell count (SkMel30) [%],cell count (SkMel5) [%],cell count (UACC257) [%],cell count (UACC62) [%]
"N#CC[C@H](C1CCCC1)n1cc(-c2ncnc3[nH]ccc23)cn1 [ruxolitinib] + CS(=O)(=O)CCNCc1ccc(-c2ccc3ncnc(Nc4ccc(OCc5cccc(F)c5)c(Cl)c4)c3c2)o1 [lapatinib] (first compound 1 µM, partner dose 0.8 µM)",99.4,93,90.7,100,102,112,91.7,–,–,–
"N#CC[C@H](C1CCCC1)n1cc(-c2ncnc3[nH]ccc23)cn1 [ruxolitinib] + NCC(=O)Nc1ccc(-n2nc(C(F)(F)F)cc2-c2ccc3c(ccc4ccccc43)c2)cc1 [OSU03012] (first compound 1 µM, partner dose 1 µM)",94.1,53.2,119,74.4,68.7,69.3,49.4,84.2,72.8,98.6
"N#CC[C@H](C1CCCC1)n1cc(-c2ncnc3[nH]ccc23)cn1 [ruxolitinib] + CO[C@@H]1[C@H](N(C)C(=O)c2ccccc2)C[C@H]2O[C@]1(C)n1c3ccccc3c3c4c(c5c6ccccc6n2c5c31)C(=O)NC4 [Midostaurin] (first compound 1 µM, partner dose 0.08 µM)",98.5,75,80.5,99.5,97.9,88.4,102,88.9,62.8,114
"N#CC[C@H](C1CCCC1)n1cc(-c2ncnc3[nH]ccc23)cn1 [ruxolitinib] + CCCCCCCCCCCC1=C(O)C(=O)C=C(O)C1=O [Embelin] (first compound 1 µM, partner dose 1.2 µM)",101,90.4,123,95.9,97.1,117,109,101,75.2,96.2
"N#CC[C@H](C1CCCC1)n1cc(-c2ncnc3[nH]ccc23)cn1 [ruxolitinib] + Oc1cc(-c2nc(-c3ccccc3)[nH]c2-c2ccncc2)ccc1Cl [L779450] (first compound 1 µM, partner dose 0.2 µM)",79.8,98.1,99.8,93.5,113,89.3,94.3,116,87.4,104
"CC[C@]1(O)C[C@H]2CN(CCc3c([nH]c4ccccc34)[C@@](C(=O)OC)(c3cc4c(cc3OC)N(C=O)[C@H]3[C@@](O)(C(=O)OC)[C@H](OC(C)=O)[C@]5(CC)C=CCN6CC[C@]43[C@@H]65)C2)C1 [vincristine] + CO[C@@H]1[C@H](N(C)C(=O)c2ccccc2)C[C@H]2O[C@]1(C)n1c3ccccc3c3c4c(c5c6ccccc6n2c5c31)C(=O)NC4 [Midostaurin] (first compound 0.0001 µM, partner dose 0.08 µM)",99,88.1,61.1,92.2,79.3,90.4,87.2,82.1,64.4,74.3
"Cc1cc(Nc2cc(N3CCN(C)CC3)nc(Sc3ccc(NC(=O)C4CC4)cc3)n2)n[nH]1 [Tozasertib] + COc1cc2c(Oc3ccc4[nH]c(C)cc4c3F)ncnc2cc1OCCCN1CCCC1 [cediranib] (first compound 0.006 µM, partner dose 0.4 µM)",98.3,95.8,93.5,96.4,92.8,96.6,111,88.4,73.2,83.9
"Cc1cc(Nc2cc(N3CCN(C)CC3)nc(Sc3ccc(NC(=O)C4CC4)cc3)n2)n[nH]1 [Tozasertib] + CO[C@@H]1[C@H](N(C)C(=O)c2ccccc2)C[C@H]2O[C@]1(C)n1c3ccccc3c3c4c(c5c6ccccc6n2c5c31)C(=O)NC4 [Midostaurin] (first compound 0.006 µM, partner dose 0.08 µM)",93.3,75.8,79.5,70.7,109,94.2,108,83.1,40.2,90.6
"N#CC[C@H](C1CCCC1)n1cc(-c2ncnc3[nH]ccc23)cn1 [ruxolitinib] + COc1ccc2c(c1)CCC1C2CCC2(C)C(NCCCCCCN3C(=O)C=CC3=O)CCC12 [U73122] (first compound 1 µM, partner dose 0.4 µM)",95,97.8,99.9,94.7,115,104,60.7,106,79.6,116
"CC[C@]1(O)C[C@H]2CN(CCc3c([nH]c4ccccc34)[C@@](C(=O)OC)(c3cc4c(cc3OC)N(C=O)[C@H]3[C@@](O)(C(=O)OC)[C@H](OC(C)=O)[C@]5(CC)C=CCN6CC[C@]43[C@@H]65)C2)C1 [vincristine] + COc1cc2c(Oc3ccc4[nH]c(C)cc4c3F)ncnc2cc1OCCCN1CCCC1 [cediranib] (first compound 0.0001 µM, partner dose 0.4 µM)",99.5,101,85.5,99,83.4,99.4,89.6,93.5,66,71.3
"CC[C@]1(O)C[C@H]2CN(CCc3c([nH]c4ccccc34)[C@@](C(=O)OC)(c3cc4c(cc3OC)N(C=O)[C@H]3[C@@](O)(C(=O)OC)[C@H](OC(C)=O)[C@]5(CC)C=CCN6CC[C@]43[C@@H]65)C2)C1 [vincristine] + CC(C)(C)c1cnc(CSc2cnc(NC(=O)C3CCNCC3)s2)o1 [SNS-032] (first compound 0.0001 µM, partner dose 0.01 µM)",106,96.3,58.8,94.6,69.9,95.8,57.1,98.8,58.5,62.7
"CC[C@]1(O)C[C@H]2CN(CCc3c([nH]c4ccccc34)[C@@](C(=O)OC)(c3cc4c(cc3OC)N(C=O)[C@H]3[C@@](O)(C(=O)OC)[C@H](OC(C)=O)[C@]5(CC)C=CCN6CC[C@]43[C@@H]65)C2)C1 [vincristine] + O=C(Nc1ccccc1)c1cc([N+](=O)[O-])ccc1Cl [GW9662] (first compound 0.0001 µM, partner dose 2 µM)",95.8,90.2,78.5,82.4,76.3,92.7,46.5,106,76.6,69.4
"N#CC[C@H](C1CCCC1)n1cc(-c2ncnc3[nH]ccc23)cn1 [ruxolitinib] + CN(C)S(=O)(=O)c1ccc2c(c1)/C(=C/c1cc3c([nH]1)CCCC3)C(=O)N2 [SU6656] (first compound 1 µM, partner dose 0.4 µM)",106,85.4,129,76.4,120,108,107,91.7,88.6,103
"Cc1cc(Nc2cc(N3CCN(C)CC3)nc(Sc3ccc(NC(=O)C4CC4)cc3)n2)n[nH]1 [Tozasertib] + CCN(CC)CCCCNc1ncc2cc(-c3cc(OC)cc(OC)c3)c(NC(=O)NC(C)(C)C)nc2n1 [PD173074] (first compound 0.006 µM, partner dose 0.1 µM)",94.2,86.9,90.1,93.6,91.1,95,99.4,112,86.8,91.4
"N#CC[C@H](C1CCCC1)n1cc(-c2ncnc3[nH]ccc23)cn1 [ruxolitinib] + CNC(=O)c1cc(Oc2ccc(NC(=O)Nc3ccc(Cl)c(C(F)(F)F)c3)cc2)ccn1 [sorafenib] (first compound 1 µM, partner dose 0.4 µM)",106,97,98.7,133,105,107,112,–,–,–
"CC[C@]1(O)C[C@H]2CN(CCc3c([nH]c4ccccc34)[C@@](C(=O)OC)(c3cc4c(cc3OC)N(C=O)[C@H]3[C@@](O)(C(=O)OC)[C@H](OC(C)=O)[C@]5(CC)C=CCN6CC[C@]43[C@@H]65)C2)C1 [vincristine] + C[C@@H]1CCN(C(=O)CC#N)C[C@@H]1N(C)c1ncnc2[nH]ccc12 [CP690550] (first compound 0.0001 µM, partner dose 1 µM)",100,93.4,96.1,92,69.6,110,63,102,56,61.5
"CC[C@]1(O)C[C@H]2CN(CCc3c([nH]c4ccccc34)[C@@](C(=O)OC)(c3cc4c(cc3OC)N(C=O)[C@H]3[C@@](O)(C(=O)OC)[C@H](OC(C)=O)[C@]5(CC)C=CCN6CC[C@]43[C@@H]65)C2)C1 [vincristine] + Cc1ccc(NC(=O)c2cccc(N(C)C)c2)cc1NC(=O)c1ccc(O)cc1 [ZM336372] (first compound 0.0001 µM, partner dose 2 µM)",83.2,78.5,51.6,89.6,57.7,101,57.6,79.4,25.7,42.2
"N#CC[C@H](C1CCCC1)n1cc(-c2ncnc3[nH]ccc23)cn1 [ruxolitinib] + COc1ccc(-c2ccc3c(N4CCOCC4)nc(N4C[C@@H](C)O[C@@H](C)C4)nc3n2)cc1CO [KU0063794] (first compound 1 µM, partner dose 0.02 µM)",95.9,93.2,83.7,96.5,107,97.7,91,104,99.5,–
"CC[C@]1(O)C[C@H]2CN(CCc3c([nH]c4ccccc34)[C@@](C(=O)OC)(c3cc4c(cc3OC)N(C=O)[C@H]3[C@@](O)(C(=O)OC)[C@H](OC(C)=O)[C@]5(CC)C=CCN6CC[C@]43[C@@H]65)C2)C1 [vincristine] + CCc1ccc(CCOc2ccc(CC3SC(=O)NC3=O)cc2)nc1 [pioglitazone] (first compound 0.0001 µM, partner dose 2 µM)",78.2,65.7,39.6,77,63.9,60.9,51.1,73.6,41.5,43.3
"Cc1cc(Nc2cc(N3CCN(C)CC3)nc(Sc3ccc(NC(=O)C4CC4)cc3)n2)n[nH]1 [Tozasertib] + NC(=O)Nc1cc(-c2cccc(F)c2)sc1C(=O)N[C@H]1CCCNC1 [AZD7762] (first compound 0.006 µM, partner dose 0.02 µM)",109,94.8,76.7,119,99.4,99.9,99.1,103,156,76.6
